Source: the supplement of paper PMC4967469
The IC50 comes from the fitted curve, where viability falls to half of the control; fits outside the tested doses are given as limits. AUC, from the same fit, is the share of area under the viability curve across the 256-fold dose range; the more sensitive the line, the further below 1. For some of these results: Where the top dose is marked as inferred, it was calculated from the reported fits.

How the values were obtained:
Experiment in all cases: Viability of human cancer cell lines after 72 h of drug (GDSC screen)
Temozolomide = compound: Cn1nnc2c(C(N)=O)ncn2c1=O [Temozolomide]; details: top dose 30 µM
Procedure: (§1)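 Human cancer cell lines in 384-well plates, medium with 10% serum, drug for 72 h over a 256-fold dose range (nine 2-fold or five 4-fold steps up to the top dose). Adherent lines were fixed and stained with the nucleic acid dye Syto60, suspension lines read with resazurin; signal relative to control wells, capped at 0 and 100%. One two-parameter sigmoid per drug and line, fitted in a mixed model over all curves with the slope shared within a line.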

IPA-3 = compound: Oc1ccc2ccccc2c1SSc1c(O)ccc2ccccc12 [IPA-3]; details: top dose 32 µM; top dose inferred
Procedure: as §1

ZG-10 = compound: CN(C)C/C=C/C(=O)Nc1ccc(C(=O)Nc2cccc(Nc3nccc(-c4cccnc4)n3)c2)cc1 [ZG-10]; details: top dose 10 µM; top dose inferred
Procedure: as §1

XL-880 = compound: COc1cc2c(Oc3ccc(NC(=O)C4(C(=O)Nc5ccc(F)cc5)CC4)cc3F)ccnc2cc1OCCCN1CCOCC1 [XL-880]; details: top dose 5.12 µM; top dose inferred
Procedure: as §1

CI-1040 = compound: O=C(NOCC1CC1)c1ccc(F)c(F)c1Nc1ccc(I)cc1Cl [CI-1040]; details: top dose 10 µM; top dose inferred
Procedure: as §1

Tubastatin A = compound: CN1CCc2c(c3ccccc3n2Cc2ccc(C(=O)NO)cc2)C1 [Tubastatin A]; details: top dose 20 µM
Procedure: as §1

JW-7-52-1 = compound: CCC(=O)N1CCN(c2ccc(-n3c(=O)ccc4cnc5ccc(-c6cnc7ccccc7c6)cc5c43)cc2C(F)(F)F)CC1 [JW-7-52-1]; details: top dose 1.2 µM; top dose inferred
Procedure: as §1

Z-LLNle-CHO = compound: CCCC[C@@H](C=O)NC(=O)[C@H](CC(C)C)NC(=O)[C@H](CC(C)C)NC(=O)OCc1ccccc1 [Z-LLNle-CHO]; details: top dose 2.56 µM; top dose inferred
Procedure: as §1

Cell Line	AUC (Temozolomide)	IC50 (Temozolomide) [µM]	AUC (IPA-3)	IC50 (IPA-3) [µM]	AUC (ZG-10)	IC50 (ZG-10) [µM]	AUC (XL-880)	IC50 (XL-880) [µM]	AUC (CI-1040)	IC50 (CI-1040) [µM]	AUC (Tubastatin A)	IC50 (Tubastatin A) [µM]	AUC (JW-7-52-1)	IC50 (JW-7-52-1) [µM]	AUC (Z-LLNle-CHO)	IC50 (Z-LLNle-CHO) [µM]
Hs766T (pancreas, adherent)	0.98	> 30	0.939	> 32	0.946	> 10	0.833	4.94	0.629	1.59	0.981	> 20	–	–	–	–
MFE-296 (endometrium, adherent)	0.984	> 30	0.807	18	0.617	1.35	0.786	2.4	0.932	> 10	0.973	> 20	–	–	–	–
G-MEL (melanoma, adherent)	0.982	> 30	0.986	> 32	0.804	4.95	0.693	1.1	0.23	0.104	0.982	> 20	–	–	–	–
NCI-H441 (lung adenocarcinoma, adherent)	0.926	> 30	0.831	> 32	0.799	7.31	0.823	4.84	0.89	> 10	0.974	> 20	–	–	–	–
OVKATE (ovary, adherent)	0.977	> 30	0.979	> 32	0.889	> 10	0.684	1.49	0.881	> 10	0.946	> 20	–	–	–	–
CAL-78 (chondrosarcoma, adherent)	0.985	> 30	0.974	> 32	0.662	1.89	0.597	0.615	0.977	> 10	0.975	> 20	–	–	–	–
Hs683 (glioma, adherent)	0.987	> 30	0.941	> 32	0.908	> 10	0.643	0.8	0.967	> 10	0.983	> 20	–	–	–	–
NY (osteosarcoma, adherent)	0.987	> 30	0.877	31.6	0.685	2.05	0.88	> 5.12	0.899	> 10	0.989	> 20	–	–	–	–
PC-14 (lung adenocarcinoma, adherent)	0.988	> 30	0.872	25	0.812	4.66	0.546	0.421	0.911	> 10	0.928	> 20	–	–	–	–
BHT-101 (thyroid, adherent)	0.906	> 30	0.919	> 32	0.808	5.39	0.585	0.55	0.395	0.319	0.932	> 20	–	–	–	–
DOHH-2 (B-cell lymphoma, suspension)	–	–	0.797	14.7	–	–	–	–	0.785	4.18	–	–	0.159	0.00699	0.728	0.698
PANC-02-03 (pancreas, adherent)	0.958	> 30	0.922	> 32	0.787	5.33	0.515	0.354	0.479	0.543	0.976	> 20	–	–	–	–
NCI-H2110 (non-small cell lung carcinoma, adherent)	0.978	> 30	0.986	> 32	0.985	> 10	0.574	0.513	0.815	5.68	0.887	> 20	–	–	–	–
COLO-783 (melanoma, adherent)	0.99	> 30	0.964	> 32	0.838	6.41	0.97	> 5.12	0.683	1.99	0.988	> 20	–	–	–	–
OVCAR-8 (ovary, adherent)	0.988	> 30	0.99	> 32	0.731	2.6	0.605	0.6	0.89	9.42	0.804	8.77	–	–	–	–
NCI-H1568 (lung adenocarcinoma, adherent)	0.965	> 30	0.976	> 32	0.796	6.05	0.804	3.35	0.969	> 10	0.982	> 20	–	–	–	–
LoVo (large intestine, adherent)	0.986	> 30	0.795	15.1	0.871	9.62	0.954	> 5.12	0.638	1.52	0.986	> 20	–	–	–	–
AsPC-1 (pancreas, adherent)	0.942	> 30	0.878	> 32	0.913	> 10	0.738	2.54	0.744	5.31	0.934	> 20	–	–	–	–
NCI-H2087 (lung adenocarcinoma, semi-adherent)	0.975	> 30	0.916	> 32	0.889	> 10	0.772	2.12	0.762	–	0.922	> 20	–	–	–	–
EN (endometrium, adherent)	0.975	> 30	0.984	> 32	0.77	4.84	0.662	1.02	0.94	> 10	0.932	> 20	–	–	–	–
BT-20 (breast, adherent)	0.98	> 30	0.983	> 32	0.976	> 10	0.923	> 5.12	0.871	> 10	0.979	> 20	–	–	–	–
